In PubChem BioAssay AID1460 (National Center for Advancing Translational Sciences (NCATS), 2008):
Values joined by “and” are separate entries in the source; they are usually repeats but may differ in a detail not shown here. Equal entries are not always repeated. Screen size: about 270,000 compounds; about 5,800 (2.1%) were called active. Inconclusive results, whose numbers are uncertain, are shown with a selection of clear calls. The call rests on the fitted dose curve; in most records, active means well fitted inhibition curve with a large enough effect; inconclusive means small, poorly fitted or top-dose-only effect; inactive means flat fitted curve, though single readings scatter. Potencies beside an inconclusive call are fits to weak or partial responses and may not hold up.
Further: nearly all actives have a fitted effect of over 55% in size.
On the % scale 0 is the no-effect control and ±100 the full control effect; potency means the concentration at half of the fitted maximal effect; tags describe the fitted curve by direction and shape.

Each compound was assayed against Microtubule-associated protein tau (Homo sapiens) (UniProt P10636) (assay: qHTS for Inhibitors of Tau Fibril Formation, Thioflavin T Binding). Details: recombinant tau K18 P301L (four-repeat tau fragment), heparin-induced fibrillization, ThT fluorescence; series mostly up to 57.4 µM.
UniProt P10636, sequence (P10636 whole entry, looked up, the tested form may be a part): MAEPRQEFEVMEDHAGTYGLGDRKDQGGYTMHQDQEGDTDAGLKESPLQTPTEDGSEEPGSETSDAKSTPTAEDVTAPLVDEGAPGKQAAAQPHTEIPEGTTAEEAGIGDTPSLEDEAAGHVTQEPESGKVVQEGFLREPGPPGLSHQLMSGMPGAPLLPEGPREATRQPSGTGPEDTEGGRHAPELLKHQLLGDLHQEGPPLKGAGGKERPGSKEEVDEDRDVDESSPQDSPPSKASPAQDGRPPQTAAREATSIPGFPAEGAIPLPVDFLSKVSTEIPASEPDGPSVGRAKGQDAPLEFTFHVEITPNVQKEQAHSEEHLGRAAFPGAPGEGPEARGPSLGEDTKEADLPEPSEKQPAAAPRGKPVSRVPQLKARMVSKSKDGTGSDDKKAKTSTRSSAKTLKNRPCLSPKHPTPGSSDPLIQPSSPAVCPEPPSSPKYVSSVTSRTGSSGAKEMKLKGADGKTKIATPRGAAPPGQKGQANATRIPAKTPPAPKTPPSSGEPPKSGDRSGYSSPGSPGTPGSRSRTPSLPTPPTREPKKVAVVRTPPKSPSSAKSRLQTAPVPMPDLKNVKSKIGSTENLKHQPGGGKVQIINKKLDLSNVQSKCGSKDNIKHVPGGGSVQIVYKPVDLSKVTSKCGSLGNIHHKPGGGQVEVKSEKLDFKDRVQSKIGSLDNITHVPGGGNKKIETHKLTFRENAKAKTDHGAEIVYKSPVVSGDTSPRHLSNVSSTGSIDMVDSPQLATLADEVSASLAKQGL
Method in brief: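 Aggregation was driven by heparin (20 uM final) acting on recombinant tau […] bearing P301L in 100 mM sodium acetate pH 7; fibrils were detected with Thioflavin T.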
For `CCN(CC)c1ccc2cc(-c3nnc(Nc4ccc(C)cc4)s3)c(=O)oc2c1`, the Potency was inconclusive: 1.58 µM [activator, partial curve]. `O=C(O/N=C/c1ccc2c(c1)OCO2)c1ccccc1Cl` was tested, and the Potency was “inactive”. In the case of `COc1ccc2c(C)c(CCC(=O)NCCc3ccccc3)c(=O)oc2c1`, the Potency is reported as inconclusive: 15.8 µM [inhibitor, partial curve]. With `OC(CNCC1CCCO1)Cn1c2ccc(Br)cc2c2cc(Br)ccc21` (stereo not given) the Potency was inconclusive: 11.2 µM [activator, partial curve]. For `NCCSSCCN`, the Potency was active: 14.1 µM and active: 12.6 µM. For `CC(C)Cc1nc2ccc(N)cc2[nH]1`, the Potency was inconclusive: 35.5 µM [inhibitor, single point]. For `CC(/C=C/c1ccc(N(C)C)cc1)=N/N=C1/NC(=O)CC(C(=O)Nc2ccc(Cl)cc2)S1` (stereo not given), the Potency was active: 7.94 µM. For `O=C(NCc1cccs1)c1cc(-c2cccc(Cl)c2)on1`, the Potency was “inactive”. In the case of `COc1cc(CC(=O)OCC(=O)c2ccc3c(c2)OCCO3)cc(OC)c1OC`, the Potency is reported as inconclusive: 12.6 µM [inhibitor, partial curve]. In the case of `O=C(c1ccccc1)c1cc([N+](=O)[O-])ccc1N1CCCC1`, the Potency is reported as inconclusive: 22.4 µM [inhibitor, single point]. With `CCCCN(C)CCNC(=O)c1nn(-c2ccc(OC)c(Cl)c2)c(=O)c2c1c1ccccc1n2C` the Potency was “inactive”. In the case of `Cc1nn(-c2ccccc2)c2sc(C(=O)Nc3ccc(Cl)cc3Cl)cc12`, the Potency is reported as “inactive”. With `COc1ccc(N2C(C(C)=O)=NN(c3ccccc3)C2c2cccs2)cc1` (stereo not given) the Potency was inconclusive: 12.6 µM [inhibitor, partial curve]. For `COc1ccc(C(=O)NCCn2cc(SCC(=O)Nc3ccc4c(c3)OCCO4)c3ccccc32)cc1`, the Potency was inconclusive: 1.12 µM [inhibitor, full curve]. With `Cc1[nH]c2ccccc2c1C1(O)C(=O)N(Cc2ccc3c(c2)OCO3)c2ccccc21` (stereo not given) the Potency was inconclusive: 28.2 µM [inhibitor, partial curve]. With `C/C(=N\NC(=O)c1ccc(NS(=O)(=O)c2cccs2)cc1)c1ccc(C(C)(C)C)cc1` the Potency was inconclusive: 4.47 µM [inhibitor, full curve]. With `COc1ccccc1C(c1c(O)cc(C)n(Cc2ccco2)c1=O)N1CCCCC1` (stereo not given) the Potency was inconclusive: 22.4 µM [inhibitor, partial curve]. For `CCOC(=O)c1sc(-c2cccc([N+](=O)[O-])c2)cc1N`, the Potency was inconclusive: 3.55 µM [inhibitor, full curve]. For `Cc1ccc(OCCCC(=O)Nc2ccc(N3CCOCC3)cc2)cc1`, the Potency was inconclusive: 10 µM [inhibitor, partial curve]. With `Cc1ccc2[nH]c(=O)c(C(c3nnnn3C3CCCC3)N3CCCc4ccccc43)cc2c1` (stereo not given) the Potency was inconclusive: 17.8 µM [inhibitor, partial curve]. With `Cc1ccc(-c2csc(N=C(N)N)n2)c(C)c1` the Potency was inconclusive: 22.4 µM [inhibitor, partial curve, poor fit]. In the case of `COC(=O)c1ccc(NC(=O)c2c(NCc3cccc(F)c3)sc3c2CCCC3)cc1`, the Potency is reported as inconclusive: 12.6 µM [inhibitor, partial curve]. `NS(=O)(=O)c1ccc(N=Nc2c(=O)[nH]n3c(=O)c4c([nH]c23)CCCC4)cc1` was tested, and the Potency was active: 7.94 µM. For `CCN(CC)CCNC(=O)COc1ccc(Cl)cc1Cl`, the Potency was “inactive”. `N#C/C(=N\O)c1nc2ccccc2[nH]1` was tested, and the Potency was “inactive”. With `Cc1cccc(/N=C/c2c(O)ccc3oc4c(c23)CCCC4)n1` the Potency was inconclusive: 17.8 µM [inhibitor, partial curve]. In the case of `CCc1ccc(/C=C2\Oc3c(ccc(O)c3CN3CCN(C)CC3)C2=O)cc1`, the Potency is reported as inconclusive: 20 µM [activator, single point]. In the case of `COC(=O)c1ccc(NC(=O)CSC2=NCCN2)cc1`, the Potency is reported as inconclusive: 12.6 µM [inhibitor, partial curve]. For `NC(=O)c1ccc(Nc2ccc([N+](=O)[O-])cc2[N+](=O)[O-])cc1`, the Potency was inconclusive: 31.6 µM [inhibitor, single point]. With `CC(=O)N1CCN(c2ccc(NC(=O)c3ccc4c(c3)OCCO4)cc2Cl)CC1` the Potency was inconclusive: 20 µM [inhibitor, partial curve]. `CCOc1ccccc1NC(=O)c1nc(S(=O)(=O)Cc2cccc(C)c2)ncc1Cl` was tested, and the Potency was inconclusive: 11.2 µM [inhibitor, partial curve, poor fit]. For `CC(C)(C)C(=O)[C@@H]1[C@@H]2C(=O)N(c3ccc4c(c3)OCCO4)C(=O)[C@@H]2C2c3ccccc3C=CN21` (stereo not given in full), the Potency was active: 28.2 µM. For `CC1CCC(N2CCNCC2)CC1` (stereo not given), the Potency was “inactive”. For `CCOc1ccccc1NC(=O)CSc1c2c(nc3ccc(Cl)cc13)CCCC2`, the Potency was inconclusive: 3.98 µM [inhibitor, full curve]. `CC1=C(c2ccc(C(C)C)cc2)S(=O)(=O)N=C1N1CCN(c2ccccc2F)CC1` was tested, and the Potency was “inactive”. `O=c1c2[nH]c3ccccc3c2ncn1CCC1=CCCCC1` was tested, and the Potency was inconclusive: 0.447 µM [inhibitor, full curve, poor fit]. `COc1cc(NC(=O)Cn2nnc(-c3ccccc3N)n2)cc(OC)c1` was tested, and the Potency was inconclusive: 17.8 µM [inhibitor, partial curve]. For `CCN(CC)CCCNCC(=O)Nc1ccc2c(c1)CCC2`, the Potency was “inactive”. With `Cc1ccccc1Nc1nn2c(=O)c3ccc(C(=O)NCC(C)c4ccccc4)cc3nc2s1` (stereo not given) the Potency was inconclusive: 0.501 µM [inhibitor, full curve, poor fit]. With `COc1ccc(-c2ccc(SCc3ccccn3)nn2)cc1OC` the Potency was inconclusive: 2.82 µM [inhibitor, full curve, poor fit]. `O=C(NCc1ccccc1)c1ccc(C(=O)N(C2CCCCC2)C2CCCCC2)cc1` was tested, and the Potency was inconclusive: 17.8 µM [inhibitor, partial curve]. `COc1cc(/C=C/c2ccc3cccc([N+](=O)[O-])c3n2)ccc1OCC(=O)O` was tested, and the Potency was inconclusive: 14.1 µM [inhibitor, partial curve]. `O=C(NCc1ccccc1)c1cc(Sc2cccc(Cl)c2)nc2ccccc12` was tested, and the Potency was “inactive”. In the case of `CC(=O)N1c2ccccc2C(=O)C1N1CCN(c2ccc(Cl)cc2)CC1` (stereo not given), the Potency is reported as inconclusive: 31.6 µM [inhibitor, single point]. `O=C(NCc1ccccn1)c1c(Cl)cccc1Cl` was tested, and the Potency was “inactive”. For `O=C(NCC1CCCO1)c1cc([N+](=O)[O-])ccc1Cl` (stereo not given), the Potency was “inactive”. `CC(C)(C)N=C1NN=C(c2cc3ccccc3o2)CS1` was tested, and the Potency was inconclusive: 14.1 µM [inhibitor, partial curve]. In the case of `O=C(/C=C\c1ccco1)NC(=S)Nc1ccccc1O`, the Potency is reported as active: 20 µM. In the case of `CCOC(=O)c1c(C)oc2c1c(C(c1cccnc1)N1CCOCC1)c(O)c1ccccc12` (stereo not given), the Potency is reported as active: 17.8 µM. With `CC(C(=O)OCC(=O)Nc1ccc2c(c1)OCO2)N1C(=O)c2ccccc2C1=O` (stereo not given) the Potency was “inactive”. With `CCOc1ccc(NC(=S)N2CCN(C/C=C/c3ccccc3)CC2)cc1` the Potency was inconclusive: 5.62 µM [inhibitor, partial curve]. For `CN(C)/C=C/C(=O)c1cnc(-c2cccc(Cl)c2)s1`, the Potency was inconclusive: 10 µM [inhibitor, partial curve]. `COc1cc(OC)cc(C(=O)N[C@H](C(=O)OCC(=O)NC(C)c2ccccc2)C(C)C)c1` (stereo not given in full) was tested, and the Potency was inconclusive: 39.8 µM [inhibitor, single point]. `O=C(Nc1ncccc1O)c1c(O)c2ccccc2[nH]c1=O` was tested, and the Potency was inconclusive: 20 µM [inhibitor, partial curve]. `CC(C)Cn1nc(NC(=O)c2cccc(Cl)c2)c2cc3ccccc3nc21` was tested, and the Potency was inconclusive: 11.2 µM [inhibitor, partial curve]. In the case of `O=C(CSc1cccc2cccnc12)N/N=C/c1ccc(O)cc1`, the Potency is reported as inconclusive: 7.08 µM [inhibitor, full curve]. With `CC(C)(C)c1ccc(C(=O)Nc2ccc(Cl)cc2)cc1` the Potency was “inactive”. `Cc1ccc(C(=O)Nc2ccc(N3CCCC3)cc2)cc1` was tested, and the Potency was inconclusive: 2 µM [inhibitor, full curve]. With `COc1ccc(-c2ccc(C3C(C#N)=C(N)Oc4n[nH]c(C)c43)o2)cc1` (stereo not given) the Potency was active: 4.47 µM. For `CCOC(=O)c1cccnc1SCC(=O)N(CC)c1cccc(C)c1`, the Potency was inconclusive: 17.8 µM [inhibitor, partial curve]. `c1csc(-c2cn3ccc4ccccc4c3n2)c1` was tested, and the Potency was active: 10 µM. With `Cc1cc(NC(=O)CCSc2ccccc2)ccc1Br` the Potency was inconclusive: 25.1 µM [inhibitor, single point]. For `CCOCCCNC(=O)c1c[nH]c2ccc(S(=O)(=O)N(C)c3ccc(Cl)cc3F)cc2c1=O`, the Potency was “inactive”. With `COCC1=Cc2cc3c(cc2C(C(C(=O)OC)C(=O)OC)N1C(=O)OC)OCO3` (stereo not given) the Potency was inconclusive: 2.82 µM [inhibitor, partial curve] and the activity, negative = inhibition was inactive: 3.55% [at 11.5 µM]. In the case of `Cc1nn(CCO)c2nc(-c3cccs3)cc(C(F)(F)F)c12`, the Potency is reported as “inactive”. In the case of `CCOC(=O)c1ccc(NC(=O)c2c(NCc3sccc3C)sc3c2CCC(C)C3)cc1` (stereo not given), the Potency is reported as inconclusive: 14.1 µM [inhibitor, partial curve]. In the case of `N#CC1=C(N)NC(SCC(=O)c2ccc(Br)cc2)=C(C#N)C12CCCCC2`, the Potency is reported as inconclusive: 15.8 µM [inhibitor, partial curve, poor fit]. In the case of `NC(=O)c1nc(Nc2ccccc2)sc1NC(=O)c1c(F)cccc1F`, the Potency is reported as inconclusive: 2.82 µM [inhibitor, full curve]. For `O=Cc1ccc(OC(=O)c2cc(Cl)nc3ccccc23)cc1`, the Potency was inconclusive: 15.8 µM [inhibitor, partial curve].
